What was measured:
[1] = molecular target: T1, GST-Syntaxin4 (mouse, UniProt P70452 1-274); assay: pull-down
T1 sequence: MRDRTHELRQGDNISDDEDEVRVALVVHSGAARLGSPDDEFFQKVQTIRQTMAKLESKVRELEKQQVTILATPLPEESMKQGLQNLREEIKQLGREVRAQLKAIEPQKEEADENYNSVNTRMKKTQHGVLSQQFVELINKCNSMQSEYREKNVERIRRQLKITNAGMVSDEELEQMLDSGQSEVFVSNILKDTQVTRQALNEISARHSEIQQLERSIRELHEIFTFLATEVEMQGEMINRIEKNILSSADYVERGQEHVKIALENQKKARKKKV

[2] = molecular target: syntaxin1A–SNAP25 complex (human | mouse); assay: pull-down

B1: His-VAMP2 (domain or fragment)
chain: not shown
binding result [1]: binds | binding result [2]: binds

From article PMC5057288 (The Journal of Cell Biology, 2016)
